# Assay results reported in ChEMBL document CHEMBL4888484, “Replenishing the malaria drug discovery pipeline: Screening and hit evaluation of the MMV Hit Generation Library 1 (HGL1) against asexual blood stage Plasmodium falciparum ,using a nano luciferase reporter read-out” (2022).
# Hit rate of the full screen: of about 150,000 compounds, about 540 (0.36%) showed an effect of 50% or more. This is one part of the list.
# Test system: Plasmodium falciparum
# Test: Primary screen in NF54 nanoGlo assay, in single point, at 2uM, 72h; a lower Z score goes with more inhibition
# Assay type: functional, Erythrocyte
# Conditions: timepoint 72 hour
Structure (SMILES),% Inhibition,Z score
COCCC[C@H]1CCCCN1S(=O)(=O)c1ccc(-c2cc(C)no2)o1,3%,-0.64
c1ccc(-n2cnc(-c3nc(-c4cnccn4)no3)n2)cc1,-17%,1.95
C[C@H](NCc1ccc2c(c1)OCO2)c1cccnc1,-8%,0.83
Cc1cccc(C(=O)N2CCn3c(nn(CC(C)C)c3=O)[C@H]2c2ccccc2)n1,0%,-0.08
Cc1nc(O)c(Br)cc1C(=O)N1CC2(CC2)C1,1%,-0.13
O=C(Nc1ccc(Br)cc1F)[C@H]1CCCN(c2cnc3ccccc3n2)C1,-13%,1.57
O=C1CCc2cc(C(=O)N3CC(C4CCC4)C3)ccc2N1,-15%,1.95
O=C(c1ccccc1)N1CC[C@H](Nc2ncccc2Cl)[C@@H](O)C1,-9%,1.31
Cn1cc([C@H]2CN(C(=O)CC3(C(F)(F)F)CC3)CC2(C)C)cn1,12%,-1.48
COCCn1cnc2c(-c3ccccc3)cn(CC(=O)N3CCN(c4ccccc4F)CC3)c2c1=O,1%,-0.11
CCNc1nc(C(=O)NCCNS(=O)(=O)CC)cs1,-10%,0.98
CN1CCN(CC(=O)Nc2cccc(S(=O)(=O)N3CCCC3)c2)CC1,-13%,1.34
Cc1nc(O)c(C(=O)NCCn2ccnc2)cc1Br,3%,-0.47
COCCn1cnc2cc(NC(=O)C3CCCCC3)cc(C(=O)N3CCC[C@H](O)C3)c21,9%,-1.15
CC(C)CS(=O)(=O)N1CCC(C#N)CC1,-29%,3.68
COc1ccc2c(c1)N(S(=O)(=O)c1cn(C)nc1C)CCO2,-6%,0.98
O=C(C1CCN(C(=O)C2(c3cccc(F)c3)CCC2)CC1)N1CCCC1,-2%,0.25
CN(C(N)=NCC1(c2cc(F)cc(C(F)(F)F)c2)CC1)C1CC1,-1%,0.13
Cc1cc(C)n([C@@H](C)C(=O)N2CCn3nc(Cc4ccccc4)cc3C2)n1,-10%,1.67
Cc1ccc(OCCN2CCN(C(=O)N(C)C)[C@H]3CS(=O)(=O)C[C@H]32)c(C)c1,-3%,0.42
O=C(CCN1CCOCC1)N1C[C@@H]2CC[C@H]1CN(Cc1cscn1)C2,-2%,0.33
Cc1nc(C)c(CC(=O)N[C@H]2CCN(c3cnccn3)C[C@@H]2O)s1,-9%,1.41
O=C(NCCN1CCN(c2nc(C3CC3)ns2)CC1)C1CCC1,5%,-0.55
O=C1CC[C@H](NC(=O)c2cccc(OC(F)F)c2)CCN1,-3%,0.52
Cc1ncc(S(C)(=O)=O)c(N2CCN(C(=O)c3cccs3)CC2)n1,3%,-0.57
Cc1ccc2c(=O)c(-c3nc(-c4ccc(Cl)cc4)no3)cn(Cc3cccc(Br)c3)c2n1,-14%,2.19
Cc1noc(CNC(=O)c2cc(-c3ccc(F)cc3)c[nH]2)n1,-2%,0.3

Structure (SMILES),% Inhibition,Z score
CCC1CCCC1NC(=O)NCc1cn(C2CC2)c(=O)[nH]c1=O (stereo not drawn),-4%,0.42
O=C(N1CCO[C@H](c2cccnc2)C1)C1(N2CCCCC2)CCCCC1,-12%,1.21
Cc1cccc2nc(N3CC[C@@](O)(CN(C)C)C3)oc12,-4%,0.71
O=C(NCC1CCC1)c1ccc(OCc2ccccc2)cc1,-6%,1.22
CNc1ncccc1C(=O)N(Cc1sccc1C)C1CCCC1,-6%,0.71
CO[C@@H](CNc1nccnc1C#N)c1cccc(Cl)c1,-4%,0.3
CCC(C)C(C(=O)O)N(C)S(=O)(=O)c1cccc(OC)c1F (stereo not drawn),-22%,2.26
CCOC(=O)c1nnsc1N1CCCCC1,-6%,0.86
Cc1ccc(CN2CCc3c(cc(C(=O)NC(C)(C)C)n3C)C2)cc1,-7%,1.16
Cc1[nH]c([C@@H]2CCCN2C(=O)Nc2ccc(Cl)cc2F)nc1-c1ccccc1,1%,-0.23
N#Cc1ccc(N2CCCCCC2CC(O)c2ccccc2)nc1 (stereo not drawn),-6%,1.08
CCC[C@H]1CCN(C(=O)c2cc(-c3cn[nH]c3)nc3cc(Cl)ccc23)C1,0%,0
Cc1cc(C)cc(C[C@H]2CC(=O)N(c3ccc4c(c3)OCCO4)C2=O)c1,-4%,0.64
Cc1ccccc1NC(=O)Cn1nc2c3ccc(F)cc3ncn2c1=O,-6%,0.94
COc1cc(CNc2noc(C)n2)cc(OC)c1OC,-10%,1.83
CC[C@@](C)(CCO)NC(=O)C(=O)Nc1ccc(C#N)cc1,1%,-0.18
OC1CC(c2cc(N[C@@H]3c4ccccc4C[C@@H]3O)ncn2)C1 (stereo partly drawn),-11%,1.59
COc1ccc(CNc2nc(N(C)C)nc3c2CCNCC3)c(OC)c1,-7%,0.89
CCc1ccc(-c2cc(C(=O)Nc3ccc4c(c3)OCO4)c3ccccc3n2)s1,-15%,2.51
CC[C@@H](C(=O)Nc1cccnc1)N(C)C,-6%,1.18
C[C@@H](c1cccnc1)N(C(=O)CCCc1ccccn1)C1CC1,8%,-1.03
COCCn1ccnc1[C@H]1N(c2cc(=O)n(C)c(=O)[nH]2)CC1(C)C,5%,-0.89
C[C@@H]1[C@@H](c2cccc(F)c2)OCCN1C(=O)CCc1ccccc1C(=O)O,8%,-0.93
O=C(OCCn1cccn1)c1cccc(F)c1Cl,-6%,0.6
C=CCN1C[C@@H](C(=O)NCC2CCN(c3ccc(C)nn3)CC2)CC1=O,-6%,0.85
O=C(CC[C@H]1CCC(=O)N1)NC1CCC2(CCCCC2)CC1,-13%,1.96
CCN1CCN(C(=O)C2CCN(c3nnc(C)c4c(C)n(-c5ccc(C)cc5)nc34)CC2)CC1,-9%,1.38
